Data taken from PubChem BioAssay AID1645882 (National Center for Advancing Translational Sciences (NCATS), 2021).
About 120 (0.75%) of roughly 16,000 compounds were called active. Roughly 4% stayed inconclusive and do not appear here. Calls follow the shape of the dose curve; as a rule, active = well fitted inhibition curve with a large enough effect; inconclusive = small, poorly fitted or top-dose-only effect; inactive = no such curve, though single readings can be large or run the other way. The list shows a part of the results.

Biological target: Rap guanine nucleotide exchange factor 3 (Homo sapiens) (UniProt O95398)
Assay: Validation qHTS for antagonist of cAMP-regulated guanine nucleotide exchange factor 3 (EPAC1);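 also: plate controls were DMSO for no effect and ATA control for full effect; nearly all actives have a fitted effect of over 75% in size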
Conditions: EPAC1 Rap1B-BODIPY-GDP exchange, fluorescence; activity change, negative = inhibition: at the top concentration
How it was run: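 Nucleotide exchange followed as fluorescence loss when BODIPY-GDP leaves Rap1B (480 nm excitation, 540 nm emission), read at 5 min intervals over 30 min. Reaction: 100 nM EPAC1, 250 nM RAP1B-BODIPY-GDP, 50 uM GDP; ATA and DMSO define normalization.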

UniProt O95398, sequence (O95398 whole entry, looked up): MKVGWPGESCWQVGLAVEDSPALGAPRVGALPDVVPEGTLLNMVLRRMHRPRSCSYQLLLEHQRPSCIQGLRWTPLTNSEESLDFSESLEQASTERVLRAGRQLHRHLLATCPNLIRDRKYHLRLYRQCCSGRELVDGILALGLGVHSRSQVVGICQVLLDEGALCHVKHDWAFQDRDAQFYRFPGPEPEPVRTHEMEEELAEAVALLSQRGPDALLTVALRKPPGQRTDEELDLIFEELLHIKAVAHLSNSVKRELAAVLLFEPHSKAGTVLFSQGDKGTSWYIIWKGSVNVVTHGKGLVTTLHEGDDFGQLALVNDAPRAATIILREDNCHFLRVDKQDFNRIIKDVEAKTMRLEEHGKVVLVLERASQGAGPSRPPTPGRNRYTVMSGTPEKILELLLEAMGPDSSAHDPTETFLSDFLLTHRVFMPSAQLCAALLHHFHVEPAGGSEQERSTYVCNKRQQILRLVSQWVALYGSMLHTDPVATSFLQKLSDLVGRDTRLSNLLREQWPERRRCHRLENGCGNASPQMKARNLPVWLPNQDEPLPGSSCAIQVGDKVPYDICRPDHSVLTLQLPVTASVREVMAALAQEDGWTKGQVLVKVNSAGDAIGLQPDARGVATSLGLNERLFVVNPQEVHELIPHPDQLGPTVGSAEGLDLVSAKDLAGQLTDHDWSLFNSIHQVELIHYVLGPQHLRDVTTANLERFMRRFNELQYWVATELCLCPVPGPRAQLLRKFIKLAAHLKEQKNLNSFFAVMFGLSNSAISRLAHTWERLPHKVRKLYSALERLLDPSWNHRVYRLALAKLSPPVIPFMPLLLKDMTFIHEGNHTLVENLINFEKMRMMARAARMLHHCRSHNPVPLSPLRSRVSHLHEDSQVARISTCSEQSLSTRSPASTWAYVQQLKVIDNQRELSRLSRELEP

| SMILES | activity change, negative = inhibition |
| --- | --- |
| COc1cc(C[C@@H](C)N)c(OC)cc1Br | inactive: 29.8% [at 320 µM] |
| O=NN1CCCC1c1cccnc1 (centres undefined) | inactive: 25.4% |
| CC(C)c1cc2c(c(O)c1O)[C@]1(C(=O)O)CCCC(C)(C)C1CC2 (some centres undefined) | inactive: -3.56% |
| CCN(C(C)=O)c1cccc(-c2ccnc3c(C#N)cnn23)c1 | inactive: 7.61% |
| CNC(C)[C@H](O)c1ccccc1 (some centres undefined) | inactive: 8.93% |
| NCCc1c[nH]c2ccc(O)cc12 | inactive |
| CC(=O)OC[C@]12C[C@H](OC(=O)CC(C)C)C(C)=C[C@H]1O[C@H]1[C@H](O)[C@@H](OC(C)=O)[C@@]2(C)[C@]12CO2 | inactive: -8.52% |
| O=[N+]([O-])c1ccc([As](=O)(O)O)cc1 | inactive: 5.68% |
| C1CC[C@H]([C@@]23C[C@H](C[C@H]4CCCN[C@H]42)[C@@H]2CCCCN2C3)NC1 | inactive: -8.1% |
| CCOCCOC(C)=O | inactive: 16.1% [at 320 µM] |
| CC[N+](CC)(CC)CC | inactive |
| CCC(COC(=O)c1cc(OC)c(OC)c(OC)c1)(c1ccccc1)N(C)C (centres undefined) | inactive: -20.6% |
| O=c1cccc2n1CC1CC2CN2CCCCC12 (centres undefined) | inactive: 17.1% |
| CCCN(CCC)CCc1ccc(O)c(O)c1 | inactive |
| c1cnc(N2CC3(CCNCC3)C2)nc1 | inactive: -1.42% |
| Cc1nc2cnc(N3CCNCC3)nc2n(C)c1=O | inactive: 8.74% |
| CC1(C)N([O-])[N+](=O)C1(C)Br (centres undefined) | inactive: 10.4% |
| COc1ccc2c(c1)/C(=C/c1cnc[nH]1)C(=O)N2 | inactive: 7.95% [at 75.8 µM] |
| C[C@@]12C=CC(=O)C=C1CCC1C2CC[C@]2(C)C(=O)CCC12 (some centres undefined) | inactive: 8.79% |
| COc1ccc2c(c1)[nH]c1c(C)nccc12 | inactive |
| Ic1ccccc1CNC1C2CCN(CC2)C1C(c1ccccc1)c1ccccc1 (centres undefined) | inactive: -1.26% [at 75.8 µM] |
| O=C1c2ccccc2C(=O)c2ccccc21 | inactive |

| SMILES | activity change, negative = inhibition |
| --- | --- |
| C=C1[C@@H](C)[C@H]2[C@H](Cc3ccccc3)NC(=O)[C@]23OC(=O)/C=C/[C@H](O)CCC[C@@H](C)C/C=C/[C@H]3[C@@H]1O | inactive: 36% |
| Nc1ccccc1 | inactive: 21.7% |
| CCOC(OCC)P(=O)(O)CCCN | inactive |
| ClC1=C(Cl)C2(Cl)C3C4C=CC(C4)C3C1(Cl)C2(Cl)Cl (centres undefined) | inactive: 10.8% |
| c1cncc([C@H]2CCCCN2)c1 | inactive: 10.9% |
| CC[N+]1(CCOC(=O)C(O)(c2ccccc2)c2ccccc2)CCCCC1 | inactive: 13.4% |
| C/C=C(/C)C(=O)OC1CC[C@]2(C)C3CCC4[C@]5(O)CC(O)[C@]6(O)C(CN7CC(C)CCC7[C@]6(C)O)[C@]5(O)C[C@@]42O[C@]13O (some centres undefined) | inactive: 10.9% |
| Cc1c(Cl)c(=O)oc2cc(OP(=O)(OCCCl)OCCCl)ccc12 | inactive: 7.74% |
| COC(=O)COc1cc(Cl)c(Cl)cc1Cl | inactive: 13.7% |
| COc1ccc(C(=O)O[C@H]2CC[C@@]3(C)C4CCC5[C@]6(O)C[C@H](O)[C@@]7(O)C(CN8C[C@@H](C)CC[C@H]8[C@@]7(C)O)[C@]6(O)C[C@@]53O[C@@]42O)cc1OC (some centres undefined) | inactive |
| CN(C)C1C(=O)C(C(N)=O)=C(O)[C@@]2(O)C(=O)C3=C(O)c4c(O)cccc4[C@](C)(O)C3C(O)C12 (some centres undefined) | inactive: 2.85% |
| C[N+]1(C)[C@@H]2CC[C@H]1CC(OC(=O)C(CO)c1ccccc1)C2 (some centres undefined) | inactive |
| C[C@@H](CO)NC(=O)[C@@H]1C=C2c3cccc4[nH]cc(c34)C[C@H]2N(C)C1 | inactive |
| Clc1ccc(C(OCCN2CCCCC2)c2ccccc2)cc1 (centres undefined) | inactive |
| COC(=O)N1CCN(C(=O)Cc2ccc(Cl)c(Cl)c2)[C@H](CN2CCCC2)C1 | inactive: -4.42% |
| CN1CCN(C(=O)OC2c3nccnc3C(=O)N2c2ccc(Cl)cn2)CC1 (centres undefined) | inactive |
| CCCSP(=O)(OCC)SCCC | inactive: 43.1% [at 320 µM] |
| NCCc1c[nH]c2ccccc12 | inactive |
| COc1ccc2c(CCN)c[nH]c2c1 | inactive: 38.9% |
| CN1C2CCC1CC(OC(c1ccccc1)c1ccccc1N)C2 (centres undefined) | inactive |
| CCC[C@@H]1CC2=CC(=O)CC[C@]2(C)[C@@H]2CC[C@@]3(C)[C@H](CC[C@]3(O)CCC(=O)O)[C@H]12 | inactive: 12.1% |
| CCO/N=C(\CC)C1=C(O)CC(c2c(C)cc(C)cc2C)CC1=O (centres undefined) | inactive: 19.8% [at 320 µM] |

| SMILES | activity change, negative = inhibition |
| --- | --- |
| Clc1ccc(N2CC3CCC(C2)N3)nn1 | inactive: -10.7% [at 75.8 µM] |
| C[C@]12CCC(=O)C=C1CCc1ccc(O)cc12 | inactive: 9.13% |
| Cc1cccc(C)c1NC1=NCCCS1 | inactive |
| CCCCCN(C)CCC(O)(P(=O)(O)O)P(=O)(O)O | inactive |
| Nc1ccc(N)cc1 | inactive: -1.03% |
| COc1ccc2c(c1O)-c1cc(O)cc3c1[C@@H](C2)N(C)CC3 | inactive: 22% |
| CC(=O)O[C@H]1C[C@H](O[C@H]2[C@@H](O)C[C@H](O[C@H]3[C@@H](O)C[C@H](OC4CC[C@@]5(C)[C@H](CC[C@@H]6[C@@H]5CC[C@]5(C)[C@@H](C7=CC(=O)OC7)CC[C@]65O)C4)O[C@@H]3C)O[C@@H]2C)O[C@H](C)[C@H]1O[C@@H]1O[C@H](CO)[C@@H](O)[C@H](O)[C@H]1O (some centres undefined) | inactive: 1.77% |
| CCC(N)Cc1c[nH]c2ccccc12 (centres undefined) | inactive |
| O=c1cccc2n1CC1CC2CN(CCO)C1 (centres undefined) | inactive: 8.39% |
| C[C@@H]1O[C@@H](O[C@H]2C[C@@H](O)[C@]3(CO)[C@@H]4C(CC[C@]3(O)C2)[C@@]2(O)CC[C@H](C3=CC(=O)OC3)[C@@]2(C)C[C@H]4O)[C@H](O)[C@H](O)[C@H]1O (some centres undefined) | inactive |
| CC(C)(O)[C@H]1O[C@@H]2CC[C@]3(C)[C@@]4(C)c5[nH]c6ccccc6c5C[C@@H]4CC[C@]3(O)C2=CC1=O | inactive: -5.4% |
| CN1CCc2cc3c(cc2C1C1OC(=O)c2c1ccc1c2OCO1)OCO3 (centres undefined) | inactive |
| CC[C@H](Oc1ccc(Cl)cc1)C(=O)OC1C[C@H]2CC[C@@H](C1)N2C (some centres undefined) | inactive: 4.6% |
| O=C(/C=C\c1ccc(Cl)cc1)N[C@@]12CCC(=O)[C@@H]3Oc4c(O)ccc5c4[C@@]31CCN(CC1CC1)[C@@H]2C5 | inactive: 16.4% |
| CCNC(=O)[C@H]1O[C@@H](n2cnc3c(N)ncnc32)[C@H](O)[C@@H]1O | inactive |
| CC(=O)OCC1=C(C(=O)O)N2C(=O)[C@@H](NC(=O)CCC[C@@H](N)C(=O)O)[C@H]2SC1 | inactive: -0.563% [at 75.8 µM] |
| CC1(C)S[C@@H]2[C@H](N)C(=O)N2[C@H]1C(=O)O | inactive: -1.54% [at 75.8 µM] |
| COc1c2c(cc3c1OCO3)CC[N+](C)=C2 | inactive: -3.75% |
| CN1C(=O)COc2c(C(=O)NC3CN4CCC3CC4)cc(Cl)cc21 (centres undefined) | inactive: -2.75% |
| CCN(CC)CCO[C@H]1CC[C@@]2(C)C(=CC[C@@H]3[C@@H]2CC[C@]2(C)C(=O)CC[C@@H]32)C1 | inactive: 8.64% |
